Experimental data from PubChem BioAssay AID894 (National Center for Advancing Translational Sciences (NCATS), 2007).
Hit rate of the full screen: of about 150,000 compounds, about 6,500 (4.3%) were called active. This list was built around the results that the source calls inconclusive (neither active nor inactive); the mix of calls is not that of the screen. Calls come from the whole dose curve; as a rule, active = well fitted inhibition curve with a large enough effect (not every such curve was filed as active); inconclusive = small, poorly fitted or top-dose-only effect, or another doubt; inactive = no such curve, though single readings can be large or run the other way. Potencies of inconclusive entries are left out as doubtful fits.

Biological target: 15-hydroxyprostaglandin dehydrogenase [NAD(+)] (Homo sapiens) (UniProt P15428)
Test: qHTS Assay for Inhibitors of HPGD (15-Hydroxyprostaglandin Dehydrogenase)
Details: purified HPGD, NADH fluorescence kinetic, PGE2 substrate; activity change, negative = inhibition: stronger effect = lower value
Outline: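 NADH formation kinetics: reaction with 30 uM PGE2 and 1 mM NAD+ (final), 20 nM enzyme, Tris-HCl pH 8 with Tween 20, after 15 min compound preincubation at room temperature. Fluorescence change, last versus first of five reads.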
% is set by controls: 0 for no effect and ±100 for the full control effect; potency is the fitted concentration of half-maximal effect; tags give direction and shape of the fitted curve.

Chain of UniProt P15428 (P15428 whole entry, looked up): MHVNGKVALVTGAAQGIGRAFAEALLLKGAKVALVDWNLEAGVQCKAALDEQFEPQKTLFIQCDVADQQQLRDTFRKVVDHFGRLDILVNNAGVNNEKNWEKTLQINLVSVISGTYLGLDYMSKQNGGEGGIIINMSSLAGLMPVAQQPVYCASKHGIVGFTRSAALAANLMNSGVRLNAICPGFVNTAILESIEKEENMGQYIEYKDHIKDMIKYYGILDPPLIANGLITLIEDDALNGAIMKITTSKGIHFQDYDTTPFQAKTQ

| Compound | Potency | activity change, negative = inhibition |
| --- | --- | --- |
| O=C(COC(=O)CCCN1C(=O)c2cccc3cccc(c23)C1=O)Nc1cccc(C(F)(F)F)c1 | inconclusive [inhibitor, partial curve] |  |
| O=C(NC(NNc1ccc([N+](=O)[O-])cc1)(C(F)(F)F)C(F)(F)F)c1ccccc1Cl | active: 14.1 µM |  |
| O=C(Cn1cc(/C=N/NC(=O)c2ccccc2Br)c2ccccc21)Nc1ccc(F)cc1 | inconclusive [inhibitor, single point] |  |
| CC1=CC(=C(C#N)c2nc3ccccc3s2)C=C(C)N1Cc1ccco1 |  | inactive: -3.71% |
| c1ccc(CSc2ncn(-c3ccccc3)n2)cc1 | active: 17.8 µM |  |
| Cc1ccccc1NC(=S)NCc1cccs1 |  | inactive: -19.9% |
| CC1CN(c2cc(=O)n(-c3ccccc3)c(=O)[nH]2)CC(C)O1 (stereo not given) |  | inactive: -2.33% |
| c1ccc(-c2nn3c(Cn4nnc5ccccc54)nnc3s2)nc1 | active: 7.08 µM |  |
| COc1cccc(N2CCN(C(=S)NCCc3ccccc3)CC2)c1 |  | inactive: -2.97% |
| O=C(Nc1ccccc1)c1cc(-c2ccccc2Cl)no1 | inconclusive [inhibitor, partial curve] |  |
| CCCCOCCCNC(=O)c1ccc2c(c1)OCO2 | active: 25.1 µM |  |
| CC(=O)O[C@]1(C)CC[C@]23CC1C(C)(C)C2CC[C@@H]3C (stereo not given in full) |  | inactive: -2.33% |
| O=C(NCC1CCCO1)c1ccc2nc(N3CCCCC3)sc2c1 (stereo not given) | inconclusive [inhibitor, partial curve] |  |
| CN(c1ccc(C(=O)NCCSCc2ccco2)cc1)S(C)(=O)=O | inconclusive [inhibitor, single point] |  |
| Brc1ccc2c(c1)C(C1=NCCN1)c1ccccc1CS2 (stereo not given) |  | inactive: 3.95% |
| Oc1ccccc1C=Nc1ccccc1-c1nc2ccccc2[nH]1 | inconclusive [inhibitor, partial curve] |  |
| Cn1c(=O)c(=O)n(C)c2cc(S(=O)(=O)N3CCN(c4ccccc4F)CC3)ccc21 | inconclusive [inhibitor, partial curve] |  |
| COc1ccc(C2C3C(C)=NN=C3CC(C)(O)C2C(C)=O)cc1 (stereo not given) |  | inactive: -1.58% |
| Cc1ccc(-n2[nH]c(C)c(C=Nc3ccc4[nH]c(=O)[nH]c4c3)c2=O)cc1 |  | inactive: -17.1% |
| CCSc1oc(-c2cccs2)nc1S(=O)(=O)c1ccccc1 | inconclusive [inhibitor, partial curve] |  |
| CCOC(=O)CSc1nc(-c2ccc(OC)cc2)ns1 | active: 35.5 µM |  |
| O=C(N/N=C/c1c[nH]c2ccccc12)c1cc(-c2cccc3ccccc23)n[nH]1 |  | inactive: -24.3% |
| Nc1ccc(C(=O)N/N=C/c2sc(N3CCOCC3)nc2-c2ccccc2)cc1 | inconclusive [inhibitor, partial curve, poor fit] |  |

| Compound | Potency | activity change, negative = inhibition |
| --- | --- | --- |
| CC(C)=CCc1c(O)ccc(C(=O)Cc2ccccc2)c1O | inconclusive [inhibitor, partial curve] |  |
| Cc1nc(-c2ccccc2)sc1-c1n[nH]c(=S)n1C |  | inactive: -28.2% |
| CCCCn1c(-c2csc3c2CCCC3)n[nH]c1=S | active: 15.8 µM |  |
| Cc1ccc(NC(=O)N(Cc2ccc3c(c2)OCO3)Cc2cc3cc4c(cc3[nH]c2=O)OCCO4)cc1 | inconclusive [inhibitor, single point] |  |
| CCS(=O)(=O)Nc1ccc(C(=O)CC2(O)C(=O)Nc3ccc(Br)cc32)cc1 (stereo not given) | inconclusive [inhibitor, partial curve] |  |
| CCCc1cc(=O)oc2cc(C)cc(OC(=O)c3ccco3)c12 |  | inactive: 2.71% |
| COc1ccc(C(=O)Nc2ccc(Cl)c(Cl)c2)c(OC)n1 | inconclusive [inhibitor, single point] |  |
| Cc1ccc(C)n1-c1nccc(-c2cccs2)n1 | inconclusive [inhibitor, partial curve] |  |
| O=C(COC(=O)c1cc(Cl)nc2ccccc12)c1ccc(Cl)cc1 | inconclusive [inhibitor, partial curve] |  |
| CCOC(=O)c1ccc(N=C2C(=S)N(c3ccc(C(=O)OCC)cc3)C(=N)N2/N=C/c2ccccc2)cc1 | active: 22.4 µM |  |
| Cc1cc(C)c2cc3c(N)c(C(=O)Nc4c(C)[nH]c(=O)[nH]c4=O)sc3nc2c1 | inconclusive [inhibitor, partial curve] |  |
| N#Cc1c(NC(=O)c2cc([N+](=O)[O-])ccc2N2CCOCC2)sc2c1CCCC2 | active: 28.2 µM |  |
| O=C(Cc1ccccc1)Nc1nc(-c2cccc([N+](=O)[O-])c2)cs1 |  | inactive: -12.4% |
| CC1=CCc2c(cc3oc(C)cc(=O)c3c2O)OC1 | inconclusive [inhibitor, partial curve] |  |
| CCC(=O)OCC(=O)[C@@]1(OC(=O)CC)[C@@H](C)C[C@H]2[C@@H]3CCC4=CC(=O)C=C[C@]4(C)[C@@]3(F)[C@@H](O)C[C@@]21C |  | inactive: -6.46% |
| Cc1oc(-c2ccccc2)nc1CS(=O)CC(=O)O (stereo not given) | inconclusive [inhibitor, single point] |  |
| COc1cc(NC(=O)CCCSc2nc(-c3ccco3)cc(C(F)(F)F)n2)cc(OC)c1OC | inconclusive [inhibitor, partial curve] |  |
| COc1ccc(NS(=O)(=O)c2ccc(O)c(NC(=O)c3cc4c(C)nn(-c5ccc(F)cc5)c4s3)c2)cc1 | inconclusive [inhibitor, partial curve] |  |
| CC(C)n1nnnc1-c1cc(Cl)cc(Cl)c1 |  | inactive: -1.01% |
| CN1c2ccccc2-c2nc3ccccc3n2C1c1ccco1 (stereo not given) | inconclusive [inhibitor, partial curve] |  |
| N=C(N)SCc1ccc(Cl)cc1Cl (tested in a mixture with another compound) | inconclusive [inhibitor, partial curve, poor fit] |  |
| CC(C)CN1CC[C@@]2(CCCN(C(=O)c3ccco3)C2)C1 |  | inactive: -4.53% |
